# Measurements published in the RNAGym collection of RNA variant scans (doi:10.1073/pnas.2313332121).
# Variants at the background level are over-represented here.
# B1: TPR 5TU (parent)
# chain: GGAUCUUCUCGAUCUAACAAAAAAGACAAAUCUGCCACAAAGCUUGAGAGCAUCUUCGGAUGCAGAGGCGGCAGCCUUCGGUGGCGCGAUAGCGCCAACGUUCUCAACUAUGACACGCAAAACGCGUGCUCCGUUGAAUGGAGUUUAUCAUG
# Variants of: B1
# Assay: polymerase ribozyme fitness, log enrichment relative to wild type (log ratio); higher = more active; in vitro selection for triplet polymerase activity
# Method in brief: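 Both subunits of a heterodimeric triplet polymerase ribozyme were given their own mutant library, built by PCR and transcribed. Each library was annealed with a biotinylated primer, the partner subunit and triplets, incubated frozen at −7 °C, and its extended constructs gel-excised, captured on streptavidin beads and amplified by RT-PCR, all in one round done in triplicate. Fitness is the logarithm of genotype enrichment relative to wild-type enrichment, with replicates averaged by inverse-variance weighting. That logarithm is base 2, and Illumina-sequenced genotypes needed ≥10 input reads and ≥1 read per output.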
row,Variant,polymerase ribozyme fitness (log ratio)
1,GGAUCUUCUCGAUCUAAUAAAAAAGACAAAUCUGCCACAAAGCUUGAGAGCAUCUUCGGGUGCAGAGGCGGCAGCUUUCGGUGGCGCGAUAGCGCCAACGUUGUCAACUAUUACACGCAAAACGCGUGCUCCGUUGAAUGGAGUUUAUCAUG,≤ -4.2
2,GGAUCUUCUCGAUCUAAUAAAAAAGACAAAUCUGCCACAAAGCUUGAGAGCAUCUUCGGAUGCCGAGGCGGCAGGCUUCGGGGGCGCGAUAGCGAUAACGUUCUCAUCUAUGACACGCAAAACGCGUGCUCCGUUGAAUCGAGUUUAUCAUG,≤ -4.2
3,GGAUCUUCUCGAUCUAAUAAAAAAGAAAAAUCUGCCACAAAGCUUGGGAGCAUCUAAGUAUGCAGAGGGGGCAGCCUUCGGUGGCGCGAUAGGGCCAACGUUCUCAACUAUGACACGCAAAACGCGUGCUCCGUUGAAUGGAUUUCAUCAUG,≤ -4.2
4,GGAUCUUCUCGAUCUAAUAAAAAAGAGAAAUCUGCCACAAAGCUUGAGAGCAUCUUCGGAUGCAGAGGCGGCAGCCUUCGGUGGCGCGAUAUCGCCAACGUUGUCAACUAUGACACGCAAAACGCGUGCUCCGUUGAAUGGAGUUUAUCAUG,≤ -4.2
5,GGAUCUUCUCGAUCUAAUAAAAAAGACAAAUCUGCAACAAAGCUUGAGAACAUCUUCGGAUGCAGAGGCGGCAGUCUUCGGUGGCGCGAUAGCGCCAACGUUCUCAACUAUGACACGCAAAACGCGUGCUCCGUUGAAUGGAGUUUAUCAUG,≤ -4.2
6,GGAUCUUCUCGAUCUAAUAAAAAAGACAAAUCUGCCAAAAAGCUUGAGAGCAUCUUCGGAUGCAGAGGCGGCAGCCUUCGGUGGCGCGAUAGCCCCAACGUUCUCAACUAUGACACGCAAAACUUGUGCUCCGUUGAAUGGAGUUUAACCUG,≤ -4.2
7,GGAUCUUCUCGAUCUAAUAAAAAAGACAAAUCUGCCAUAAAGCUUGAGAGCAUCCUCGGAUGCAGAGGCGGCAGCCUUCGGUGGCGCGAUAGCGCCUACGUUCUCAACUAUGACACGCACAACGCGUGCUCCGUUGAAUGGAGUUUAUCAUG,-1.43
8,GGAUCUUCUCGAUCUAAUAAAAAAGACAAAUCUGCCACAAAGGUUGAGAGCAUCUACGGAUGCAGAGGCGGCAGCCUUUGGUUGCGCGAUAGCGACAACGUUCUCAACUAUGACACGCAAAACGCGUGCUCCGUUGAAUGGAGUUUAGCAUG,≤ -4.2
9,GGAUCUUCUCGAUCUAAUAAAAAAGACAAAUCUGCCACAAAGUUUGAGAUCAUCUUCGGAAGCAGAGGCGGCAGCCUUCCGUGGCGCGAUAGCGCCAACGUUCUCAACUAUGACACGCAAAACGCGUGCUCCGUUGAAUGGAGUUUAUCAUG,≤ -4.2
10,GGAUCUUCUCGAUCUAAUAAAAAAGACAAAUCUGCCACAAAGCUUGAGAGUAUCUUCGGAUGCAGAGGCGGCAGCCUUCGGUGGCGCGUUAGCGCAAACGUUCUCAACUAUGACACGCAAAACGCGUGCUCCGUUGAAUGGAGUUUAUCAUG,-2.24
11,GGAUCUUCUCGAUCUAAUAAAAAAGACAAAUCUGCCACAAAGCUUGAGAGCAUGUUCGAAUGCAGAGGCGGCAGCCUUCGGUGGCGCGAUAGAGCCAACGUUCUCAACUAUGACACGCAAAACGCGUGCUCCGUUUAAUGGAGUUUAUCAUG,≤ -4.2
12,GGAUCUUCUCGAUCUAAUAAAAAAGACAAAUCUGCCACAAAGCUUGAGAGCAUCUUCGGAUGCAGAGGCGGGAGCCGUCGGUGACGCGAUAGCGCCAACGUUCUCAACUAUGAGACGCAAAACGCGUGCUCCGUUGAAUGGAGUUUAUCAUG,≤ -4.2
13,GGAUCUUCUCGAUCUAAUAAAAAAGACAAAUCUGCCACAAAGCUUGAGAGCAUCUUCGGAUGCAGAGGCGGCAGCAUUCGGUGGCGCGAUAGCGUCAAAGGUCUCAUCUAUGACACGCAAAACGCGUGCUCCGUUGAAUGGAGUUUAUGAUG,≤ -4.2
14,GGAUCUUCUCGAUCUAAUAAAAAAGACAAAUCUGCCACAAAGCUUGAGAGCAUCUUCGGAUGCAGAGGCGGCAGCCUUCGGUGGUGCGAUAGCGCCAACGUUCUUAACUAUGACACGCAAAACGCGUGCUCCGUUGAAUGGAGUUUAUCAUG,0.286
15,GGAUCUUCUCGAUCUAAUAAAAAAGACAAAUCUGCCACAAAGCUUGAGAGCAUCUUCGGAUGCAGAGGCGGCAGCCUUCGGUGGCGAGAUAGCGCCAACGUUCUCAACUAUGACACGCAAAACGCGUGCUCCGUUGAAUGGAGUUUAUCAUG,≤ -4.2
16,GGAUCUUCUCGAUCUAAUAAAAAAGACAAAUCUGCCACAAAGCUUGAGAGCAUCUUCGGAUGCAGAGGCGGCAGCCUUCGGUGGCGUGAUAGCGCCAAUGUUCUCAACUAUGACACGCGAAACGGGUGCUCCGUGGAAUGGAGUUUAUCAUG,≤ -4.2
17,GGAUCUUCUCGAUCUAAUAAAAAAGACAAAUCUGCCACAAAGCUUGAGAGCAUCUUCGGAUGCAGAGGCGGCAGCCUUCGGUGGCGUGAUAGCCCCAACGUUCUCAACUAUGACACGCAAAAAGCGUGCUCCGUUGAAUGAAGUUUAUCAUG,≤ -4.2
18,GGAUCUUCUCGAUCUAAUAAAAAAGACAAAUCUGCCACAAAGCUUGAGAGCAUCUUCGGAUGCAGAGGCGGCAGCCUUCGGUGGCGCGAUAGUGCCAACGUUCUCAACUAUGACACGCAAAACGCGUGCUCCGUUGAAUGGAGUUUAUCAUG,-1.73
19,GGAUCUUCUCGAUCUAAUAAAAAAGACAAAUCUGCCACAAAGCUUGAGAGCAUCUUCGGAUGCAGAGGCGGCAGCCUUCGGUGGCGCGAUAGCGCUAACGUUCUCAACUAUGACACGCAAAACGCGUGCUCCGUUGAAUGGAGUUUAUCAUG,-0.659
